# From PubChem BioAssay AID624296 (National Center for Advancing Translational Sciences (NCATS), 2012)
# In all, about 350,000 compounds went through this assay and about 9,900 (2.8%) were called active. The inconclusive results got no clear call from the source; some entries with a clear call stand among them for comparison. The call rests on the fitted dose curve; in most records, active means well fitted activation curve with a large enough effect; inconclusive means small, poorly fitted or top-dose-only effect; inactive means no such curve, though single readings can be large or run the other way. No potency is given beside an inconclusive call; the fits are too rough.
# Assay: A quantitative high throughput screen for small molecules that induce DNA re-replication in MCF 10a normal breast cells. Further: nearly all actives have a fitted effect of over 50% in size. On activity, positive = re-replication: % of control where 0% means no effect.
# Conditions: MCF 10A DNA re-replication, Hoechst nuclear intensity, 48 h; activity, positive = re-replication: at 46.1 µM (top of the series)
# Potency means the concentration at half of the fitted maximal effect; tags describe the fitted curve by direction and shape.
SMILES,"activity, positive = re-replication",Potency
Cc1sc2ncn(CC(=O)N3CCN(c4ccccc4F)CC3)c(=O)c2c1S(=O)(=O)N1CCOCC1,inactive: 0.0556%,–
Cc1c(Cc2ccc3c(c2)OCO3)sc(NC(=O)c2cccc3ccccc23)c1C(N)=O,–,"inconclusive [activator, partial curve, poor fit]"
CN(c1ccc(O)cc1)S(=O)(=O)c1ccc2ccccc2c1,–,"inconclusive [activator, single point]"
Cc1ccc(C=Nc2ccc(N(C)C)cc2)o1,–,"inconclusive [activator, single point]"
Cc1cc(C(C)(C)C)cc(S(=O)(=O)Nc2cccc(C(=O)O)c2)c1C,inactive: -1.78%,–
Cc1ccc(S(=O)(=O)CCC(=O)Nc2ccccc2N2CCCC2)cc1,inactive: -7.62%,–
CN(CC(=O)Nc1cccc(F)c1)C(=O)c1cccc(S(=O)(=O)N2CCN(c3ccccc3)CC2)c1,–,"inconclusive [activator, single point]"
O=C1Cc2c([nH]c3ccc([N+](=O)[O-])cc23)-c2ccccc2N1,–,"inconclusive [activator, partial curve]"
COc1ccc(CCNC(=O)c2ccc(-c3ccc([N+](=O)[O-])cc3Cl)o2)cc1,–,"inconclusive [activator, partial curve, poor fit]"
CC1=CC(C)(C)N(C(=O)CN2C(=O)c3ccccc3C2=O)c2ccc(C)cc21,inactive: -1.89%,–
Cc1ccc(CNC(=O)COC(=O)c2cncc(Br)c2)cc1,inactive: -22.3%,–
N#Cc1nc(Cc2cccc3ccccc23)oc1NCc1ccc2c(c1)OCO2,–,"inconclusive [activator, single point]"
COc1ccc(C2CC(c3ccccc3Cl)=NN2c2ccc(S(N)(=O)=O)cc2)cc1 (centres undefined),–,"inconclusive [activator, single point]"
CCCCc1ccc(NC(=O)Nc2cc(C)nn2C)cc1,–,"inconclusive [activator, single point]"
Cc1cc(-c2ccc(C)c(S(=O)(=O)NCC3CCN(Cc4cccc(F)c4)CC3)c2)on1,inactive: 14.6%,–
O=C(c1ccccc1Cc1ccccc1)N1CCN(S(=O)(=O)c2ccccc2Br)CC1,–,"inconclusive [activator, partial curve, poor fit]"
O=C(NC(=O)c1cc(OCC(F)(F)F)ccc1OCC(F)(F)F)Nc1ccccc1,–,"inconclusive [activator, partial curve, poor fit]"
CC(C)(C)C(=O)OCOP(=O)(COCCn1cnc2c(N)ncnc21)OCOC(=O)C(C)(C)C,inactive: 8.24%,–
Cc1oc2c(CN(C)C)c(O)ccc2c(=O)c1-c1ccc2ccccc2n1,–,"inconclusive [activator, single point]"
CCn1nc(NC(=O)c2ccncc2)c2cc3cccc(C)c3nc21,inactive: 29.3%,–
CC1=NN(c2ccccc2)C(=O)/C1=C\C=C1\N(C)c2ccccc2C1(C)C,–,"inconclusive [activator, single point]"
O=C(NC(=Nc1nc2ccccc2o1)NC(=O)c1ccccc1)c1ccccc1,–,"inconclusive [activator, single point]"

SMILES,"activity, positive = re-replication",Potency
CCOC(=O)CCCC(=O)Nc1ncnc2c1C(c1ccccc1)c1c(ccc3ccccc13)O2 (centres undefined),–,"inconclusive [activator, single point]"
COc1ccccc1CN1CC(C(=O)NCCCc2ccc(F)cc2)CCC1=O (centres undefined),inactive: 0.858%,–
COc1ccc(CCNC(=O)Cc2ccccc2)cc1OC,inactive: -16.2%,–
COc1ccc(-c2nnc(SCC(=O)O)n2Cc2ccccc2)cc1,inactive: 2.82%,–
Cc1ccc(-c2nn3c(C)nnc3c3ccccc23)cc1S(=O)(=O)NC(C)(C)CO,–,active: 11.2 µM
O=C(O)c1cccc2c1C(=O)N(Cc1ccccc1)C2,inactive: -13.2%,–
CCCCC1OC23CCCCC2C(C#N)(C#N)C1(C#N)C(=N)O3 (centres undefined),–,"inconclusive [activator, partial curve, poor fit]"
Cc1ccc(C(=O)c2cc([N+](=O)[O-])ccc2N2CCOCC2)c(C)c1,–,active: 0.92 µM
COc1cc(/C=N/O)c(Br)cc1OCC(=O)Nc1ccccc1C,inactive: -51.9%,–
COc1ccc(/C=C/C(=O)N(C)C2CCCCC2)cc1Br,–,"inconclusive [activator, single point]"
CC(=O)Nc1ccc(S(=O)(=O)N(c2cccnc2)S(=O)(=O)c2ccc(NC(C)=O)cc2)cc1,–,"inconclusive [activator, partial curve, poor fit]"
CC(C)Oc1cccc(C(=O)C2CCCN(Cc3cnc(N4CCCC4)s3)C2)c1 (centres undefined),–,"inconclusive [activator, single point]"
Cc1noc(C)c1C(c1ccccc1)S(=O)(=O)c1ccccc1 (centres undefined),–,"inconclusive [activator, single point]"
CC1CC(=O)c2cnc(Nc3cccc(C(F)(F)F)c3)nc2C1 (centres undefined),–,"inconclusive [activator, partial curve, poor fit]"
COC(=O)[C@]1(C)N[C@H](CN(C)S(=O)(=O)c2ccc(C(F)(F)F)cc2)[C@@H]2C(=O)N(C)C(=O)[C@@H]21,–,"inconclusive [activator, single point]"
COc1cc(NS(=O)(=O)c2ccc(Nc3nc(-c4ccccc4)cs3)cc2)nc(OC)n1,–,"inconclusive [activator, single point]"
CC1(C)O[C@@H]2[C@H](O1)[C@@H](CO)O[C@H]2n1ccc(=O)[nH]c1=O,inactive: 22.3%,–
CC1CCN(CCCNC(=O)COc2cc(=O)n(C)c3ccccc23)CC1,inactive: 13%,–
O=C(CSc1nc2ccccc2c(=O)n1-c1ccc(F)cc1F)c1c[nH]c2ccccc12,–,"inconclusive [activator, single point]"
Cc1ccc(OCCCCCN2CCOCC2)cc1,–,"inconclusive [activator, full curve, poor fit]"
CCCn1nnnc1NC(=O)c1ccc2ccccc2c1,–,"inconclusive [activator, partial curve]"
COCCN(C(=O)COC(=O)/C=C/c1ccc(C(F)(F)F)cc1)c1c(N)n(Cc2ccccc2)c(=O)[nH]c1=O,–,"inconclusive [activator, single point]"
